These results are taken from US20200385445A1 (COMPUGEN, published 2020).

The test concerns the target T1, human PVRL2-His (Catalog #2229-N2-050/CF, R&D Systems) (human, UniProt Q92692 32-360).
T1 construct: Bought (R&D Systems); also called His-tagged PVRL2 recombinant protein; PVRL2 (CD112)
T1 sequence (looked up): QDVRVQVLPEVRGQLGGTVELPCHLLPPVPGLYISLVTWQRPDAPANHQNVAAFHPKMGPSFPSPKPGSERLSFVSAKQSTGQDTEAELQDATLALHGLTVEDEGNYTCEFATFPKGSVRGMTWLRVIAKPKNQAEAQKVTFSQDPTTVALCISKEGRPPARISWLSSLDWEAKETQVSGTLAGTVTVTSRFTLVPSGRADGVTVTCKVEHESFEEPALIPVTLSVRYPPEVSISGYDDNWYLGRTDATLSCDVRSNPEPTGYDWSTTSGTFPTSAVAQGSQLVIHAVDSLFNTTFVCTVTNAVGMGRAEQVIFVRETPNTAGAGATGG
The test can be described thus: ELISA, PVRIG H:H titrated on coated His-tagged PVRL2, one-site binding fit.

B1: PVRIG hECD-hIg fusion protein (ECD of human PVRIG fused to the Fc of human IgG1 bearing C220, C226 and C229 to S mutations at the hinge) (Fc fusion)
chain: TPEVWVQVRMEATELSSFTIRCGFLGSGSISLVTVSWGGPNGAGGTTLAVLHPERGIRQWAPARQARWETQSSISLILEGSGASSPCANTTFCCKFASFPEGSWEACGSLPPSSDPGLSAPPTPAPILRAD[omitted - human IgG1 Fc with changes]
notes: also called PVRIG H:H; PVRIG-ECD-Ig
With B1, the Kd is 13 nM. This lies in the double-digit nanomolar range.
